T1: UNK ZnF1-6 (called full-length) (human, UniProt Q9C0B0 30-357)
T1 sequence: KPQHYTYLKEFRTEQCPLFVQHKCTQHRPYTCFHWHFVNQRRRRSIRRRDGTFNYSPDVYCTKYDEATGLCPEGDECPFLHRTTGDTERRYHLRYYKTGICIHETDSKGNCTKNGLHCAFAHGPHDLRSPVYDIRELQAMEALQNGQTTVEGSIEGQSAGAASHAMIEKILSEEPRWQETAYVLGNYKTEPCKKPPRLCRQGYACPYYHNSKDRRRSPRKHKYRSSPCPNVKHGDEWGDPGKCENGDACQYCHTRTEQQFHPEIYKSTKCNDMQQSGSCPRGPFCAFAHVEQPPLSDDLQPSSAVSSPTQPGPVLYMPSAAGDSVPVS

B1: chr12:49127802:49127903:-|3pUTR|ENSG00000123416|msi1_unk|total|mutant (ssRNA)
RNA: GGGAGUUCUACAGUCCGACGAUCAUGUCAUGCUCCCAGAAUUUCAGCUUCAGCUUAACUGACAGACGUUAAAGCUUUCUGGUCCGAUUGUUUUCACUUGGUGAUCAUGUCUUUUCCAUGUGUACCUGUAAUAUUUUUCCAUCACAACAGAGGAUUGAGCAUCA
B2: chr2:108783740:108783841:+|CDS_3pUTR|ENSG00000153201|msi1_unk|FALSE|overlapping (ssRNA)
RNA: GGGAGUUCUACAGUCCGACGAUCCAAUAAUUCUCAAUUUGUUAUAACACUGAAGAAAGCAGAACAUUUGGACUUUAAGCAUGUAGUAUUUGGGUUUGUUAAGGAUGGCAUGGAUACUGUGAAAAAGAUUGAAUCAUUUGGUUCCAACAGAGGAUUGAGCAUCA
B3: chr17:21001410:21001511:-|3pUTR|ENSG00000124422|msi1_unk|total|mutant (ssRNA)
RNA: GGGAGUUCUACAGUCCGACGAUCCCGUACAACUUUCCGACACAGAAAUCUGAAUGACAUAUAUUGUUCUGUGUCAAGAAACUCCGAUUUUUUUUUUAACUAUUUAAAAACGUGAAACCUAUUCUCCGCUCACAGGCCAUGGAGCAACAGAGGAUUGAGCAUCA
B4: chr20:4700211:4700532:+|3pUTR|ENSG00000171867|msi1|total|mutant (ssRNA)
RNA: GGGAGUUCUACAGUCCGACGAUCUUGCCUGGAUACCUCUGGCUCCUUCAGCAGCCCGAGCUCAGUAUACUAAUGCCCUAUCUCCGCCGAGAUUUCACCGCUAUUCCGAGAUAUUUUCCAUUUUAAGAAAACCCGACAACAUUUCAACAGAGGAUUGAGCAUCA
B5: chr6:149379354:149379455:+|CDS|ENSG00000055208|msi1|FALSE|bound_elsewhere (ssRNA)
RNA: GGGAGUUCUACAGUCCGACGAUCAGGGGUGGUGUCCCCUACCUUUGAACUUACAAAUCUUCUUAAUCAUCCUGAUCAUUAUGUAGAAACCGAGAAUAUUCAGCACCUCACGGACCCUACAUUAGCACAUGUGGAUAGAAUAAGCAACAGAGGAUUGAGCAUCA
B6: ENSG00000100154:stop:overlap|stop_codon|ENSG00000100154|stop_codon|NA|stop_codon (ssRNA)
RNA: GGGAGUUCUACAGUCCGACGAUCAGCCAGUGAAGGCAGGUGACACUUACCUCCACCAGGUGAUGCAGGCUGUGGUGAUAAACUAGAGUGUGAAGAGCUCAGAGUGCAGCCUCUGGCCUUGCCACUCACAAGCUGUAGGACACUCAACAGAGGAUUGAGCAUCA
B7: chr7:138706293:138706717:-|three_prime_utr|ENSG00000105929|control|control|control (ssRNA)
RNA: GGGAGUUCUACAGUCCGACGAUCAUGGUUACAAGUUUUCUCCAUUCUCCUUUAAACACAUCCUGGAUGGCACAGCCGAGGAGUAGGCUGAGGGCUGCACCUCCCACGGUGGUCACCAUGCCAAUGAAGGAAGUUCAGUCUUGUCAACAGAGGAUUGAGCAUCA
B8: chr22:45843749:45843850:+|3pUTR|ENSG00000130638|msi1|total|mutant (ssRNA)
RNA: GGGAGUUCUACAGUCCGACGAUCAAAUUGCAAGUGUUUGAAGAUUUAUAAGUACAAAUUUGGGAACAUACAAAUCUUUCCGGCCGCCGAGUUUAACGUGUAUAAGCUAAAAGUGAAAGUAACUGAGUGUUCUCUUGUUUCUUUCAACAGAGGAUUGAGCAUCA
B9: chr8:17644361:17644462:-|3pUTR|ENSG00000129422|msi1|FALSE|bound_elsewhere (ssRNA)
RNA: GGGAGUUCUACAGUCCGACGAUCCAACAUUGUGAUGUCAGUAUUUACUAAUCUACAUUCAGUGGCUGUACAAAUAACAGCUGUAGUAAGAAGAGAUUCAGGAUGCUAGAGGUGAAUAUUUGGGUCAUUUACAUGUACACUACACAACAGAGGAUUGAGCAUCA
B10: chr18:2547350:2547451:-|CDS|ENSG00000101574|unk|FALSE|unique (ssRNA)
RNA: GGGAGUUCUACAGUCCGACGAUCUAGACAGAAGCACCUACGUUUUAUAAAGGAAGAACUUUAUCCCUCUUGGUCUGUGGAGGUAGUUGCUGAGUGGCACUGGGUAAAAGUAAGUUCAGAAGUUAGCUUAUUUGUUAAUACAGCCAACAGAGGAUUGAGCAUCA
B11: chr15:52582156:52582307:-|CDS|ENSG00000047346|control|control|control (ssRNA)
RNA: GGGAGUUCUACAGUCCGACGAUCAAGAUCUACCUCCAUAGAGACGUACGGCUCCUGUUCUCUAGAAAGUCAAUGGAGGUUGAUAGCGGUGCUGCAUAUGAACUCAAAUCUUACACUGAAUCACCAACAAACCCUCAGUUUUCACAACAGAGGAUUGAGCAUCA
B12: chr1:54216159:54216271:+|CDS|ENSG00000116221|unk|total|mutant (ssRNA)
RNA: GGGAGUUCUACAGUCCGACGAUCCUUGGAGCAGCCCGUGGUGGUGCAGAGCGUGGGCACGGAUGGACGUGUCUUCCAUUUCCCCGUGUUUCAACUGAAUACCACAGACCUGGACUGUAACGAGGGUGUCAAGAAUUUGGCCUGCAACAGAGGAUUGAGCAUCA
B13: chr12:27081967:27082483:-|CDS|ENSG00000214700|control|control|control (ssRNA)
RNA: GGGAGUUCUACAGUCCGACGAUCGAGAACAAAACUGUCUGUUGGCAAACUGAAUAAUCUUGUGCAAGAGUUUCAGAUAUUUCUAGAAAAUCUGAAAGAUGAUGACGCUGUAUUUCCUGAAACUGCUCAGCAAGAUUUCCAGCUCAACAGAGGAUUGAGCAUCA
B14: chr14:88572724:88572825:+|CDS|ENSG00000100722|unk|total|mutant (ssRNA)
RNA: GGGAGUUCUACAGUCCGACGAUCGUGACACUUACAUAUGGUUCUUCUCGCCCUUCUAUUGAAAUUUAUCGACCACCUGCAAGCCGAAAUGCAGACCGUGGUGUUCAUUUAAACAGGUUGCAAUUUCAACAGCAGCAGAACCGUCAACAGAGGAUUGAGCAUCA
B15: chr19:49662424:49662617:-|CDS|ENSG00000126456|control|control|control (ssRNA)
RNA: GGGAGUUCUACAGUCCGACGAUCGUUACUGGGUAACAUGGUGUUGGCCCCACUCCCAGAUCCGGGACCCCCAAGCCUGGCUGUAGCCCCUGAGCCCUGCCCUCAGCCCCUGCGGAGCCCCAGCUUGGACAAUCCCACUCCCUUCAACAGAGGAUUGAGCAUCA
B16: chr1:45741042:45741143:-|CDS|ENSG00000197429|msi1|FALSE|unique (ssRNA)
RNA: GGGAGUUCUACAGUCCGACGAUCUGCCAUGAUCUCUUGGAAUUCUCAGAAAACUACAUUCAUGUCCAUUUCUUGGAGGUUCAUAGUGGAGAAGAGUUCCUGGCACUUACGAAAGAUCAGCUGAUCAAAAUUUUGCGAAGUGAACAACAGAGGAUUGAGCAUCA
B17: chr12:6238111:6238124:+|3pUTR|ENSG00000010278|msi1_unk|total|mutant (ssRNA)
RNA: GGGAGUUCUACAGUCCGACGAUCUGUUUGUUUUUGCUUGUUAUAUUAAGCAGAAAUCCUGCAAUGAAAGGUACUAUAUUUGCCCGACUCCCGACAAGAUAUUGUACAUAAAAGAAUUUUUUUGUCUUUAAACCGAUACAAAUGCAACAGAGGAUUGAGCAUCA
B18: chr16:67976092:67976228:-|CDS|ENSG00000141096|control|control|control (ssRNA)
RNA: GGGAGUUCUACAGUCCGACGAUCCCUCAGGGGCUGGAGGAUGUGUCCACAUACCCAGUCCUGAUAGAGGAGUUGCUGAGUCGUAGCUGGAGCGAGGAAGAGCUUCAAGGUGUCCUUCGUGGAAACCUGCUGCGGGUCUUCAGACAACAGAGGAUUGAGCAUCA
B19: chr12:6965432:6965572:-|3pUTR|ENSG00000215021|unk|total|mutant (ssRNA)
RNA: GGGAGUUCUACAGUCCGACGAUCUGCGAUGGUCCCCCACACCGGUUCCCUGAACCCCUCUUGGAUUAAGGAAGACUGAAGACCCGCCCCUUUUCUGGGGAAUUACUUUCCUCCUCCCUGUGUUAACUGGGGCUGUUGGGGACACAACAGAGGAUUGAGCAUCA
B20: ENSG00000136451:be:win_1401|CDS|ENSG00000136451|bound_else_gene|NA|bound_elsewhere_windowed (ssRNA)
RNA: GGGAGUUCUACAGUCCGACGAUCCACCCCCGUCACUGCCCCAGUGAAUAUAGCACACCCUGUCACCAUCACAUCUCCAAUGAAUCUACCCACACCUAUGACAUUAGCCGCCCCUCUCAAUAUAGCAAUGAGACCUGUAGAGAGCAACAGAGGAUUGAGCAUCA
B21: chr7:41967724:41967825:-|CDS|ENSG00000106571|msi1|FALSE|bound_elsewhere (ssRNA)
RNA: GGGAGUUCUACAGUCCGACGAUCCCCCAUCAGCAACUAUUCCAACAGUGGGCUCGAGCUUCCUCUGACCGAUGGAGGUAGUAUAGGAGACCUCAGUGCCAUCGAUGAAACCCCAAUCAUGGACUCAACCAUUUCCACUGCAACCAACAGAGGAUUGAGCAUCA
B22: chr3:179334266:179334377:+|CDS|ENSG00000121864|unk|total|mutant (ssRNA)
RNA: GGGAGUUCUACAGUCCGACGAUCUUAUUUAUGUCAAUAUUGUGAAUAUUCAACAGGACAAAUUGAAGAUCUUAAAAUUCAUCCCGAUUUCAAGCAUUCAGCUGACUUGCCUCAUAAAUGCCGUGACUGCUUGAUGAGGUUUGGCAACAGAGGAUUGAGCAUCA

The other results are listed elsewhere or left out.

This test concerns the target T1, UNK ZnF1-6 (called full-length). The experiment in a line: nsRBNS (natural sequence RNA bind-n-seq); RBNS binding buffer (assumed for nsRBNS): 25 mM Tris pH 7.5, 150 mM KCl, 3 mM MgCl2, 0.01% Triton X-100, 500 ug/ml BSA, 20 U/ml SUPERase-In, 4 C; UNK is unkempt and MSI1 is Musashi-1; names of the RNAs are library labels; protein concentration not given here; high values mean tight binding.
As for B1, the binding signal worked out at 0.481 enrichment R. The molecule B2 had a binding signal of 0.671 enrichment R.

Regarding B3, the binding signal is 0.479 enrichment R.

Turning to B4, the binding signal was 0.676 enrichment R. Consider B5, for which the binding signal is 0.615 enrichment R. In turn, B6 yielded a binding signal of 0.552 enrichment R. To B7 belongs 0.639 enrichment R; to B8, 0.399 enrichment R.

The molecule B9 showed a binding signal of 0.301 enrichment R. To B10 belongs 0.729 enrichment R; to B11, 0.648 enrichment R. For the molecule B12, the binding signal turned out to be 0.731 enrichment R. Next, B13: 0.268 enrichment R. On to B14, for which the binding signal is 0.566 enrichment R. The molecule B15 returned a binding signal of 1.06 enrichment R. On to B16, for which the binding signal was found to be 0.258 enrichment R.

In turn, B17 registered a binding signal of 0.428 enrichment R. Molecule B18 displayed a binding signal of 0.577 enrichment R.

The molecule B19 had a binding signal of 0.701 enrichment R. B20 had a binding signal of 1.59 enrichment R. Molecule B21 displayed a binding signal of 0.689 enrichment R.

On to B22, for which the binding signal stood at 0.321 enrichment R.

The values are drawn from article PMC12136788.
